From ChEMBL document CHEMBL4888484, “Replenishing the malaria drug discovery pipeline: Screening and hit evaluation of the MMV Hit Generation Library 1 (HGL1) against asexual blood stage Plasmodium falciparum ,using a nano luciferase reporter read-out” (2022)
About 540 (0.36%) of roughly 150,000 compounds showed an effect of 50% or more. This is one part of the list.

Test system: Plasmodium falciparum
Experiment: Primary screen in NF54 nanoGlo assay, in single point, at 2uM, 72h; a lower Z score goes with more inhibition
Format: functional, Erythrocyte
Conditions: timepoint 72 hour

Row | SMILES | % Inhibition | Z score
1 | CN1CCC(NC(=O)C(=O)c2ccc(C(C)(C)C)cc2)CC1 | -11% | 1.34
2 | COCCN1CCN2C(=O)[C@H](C)N(C(=O)c3cc(C4CC4)[nH]n3)C[C@H]2C1=O | -18% | 1.6
3 | CCCN1CCN(C(=O)c2ccc(C(=O)O)nc2)c2ccc(F)cc21 | -2% | 0.24
4 | Cc1nnc(CN(C)Cc2cccc(C#N)c2)n1C | 4% | -0.51
5 | O=C(c1ccccc1)N1CCN(C(=O)c2ccc3ccccc3n2)CC1 | 4% | -0.73
6 | Cc1n[nH]c(C)c1CCN(C)[C@@H](/C=C/C(C)(C)C)C(=O)O | -10% | 1.13
7 | Cc1ccc(Cc2c(C)nc(C)nc2N2CCN(C[C@H](O)COC(C)(C)C)CC2)cc1 | 1% | -0.07
8 | CN(C(=O)Cn1c2ccccc2n2c(=O)cc(-c3ccc(F)cc3)nc12)c1ccccc1 | -7% | 0.85
9 | Cn1nncc1NC(=O)NCc1cnn(CCF)c1 | -2% | 0.32
10 | O=C(NCc1ccc(N2CCCCC2)nc1)C1CCCCC1 | -5% | 0.84
11 | NC(=O)C1CCCC1NC(=O)CC(O)c1ccc(Cl)cc1 (stereo not drawn) | 9% | -1.18
12 | C[C@@H]1OC2(CCN(Cc3c[nH]nc3-c3ccc(C(F)(F)F)cc3)CC2)NC1=O | -15% | 3.07
13 | C#CCCC1(CCC(=O)N2CC3CCCC3C2C(N)=O)N=N1 (stereo not drawn) | -6% | 0.73
14 | O=C(NCc1ccccn1)c1c[nH]c(=O)n(Cc2ccc3c(c2)OCO3)c1=O | -22% | 3.82
15 | CC[C@H](N)C(=O)N(C)Cc1cccc(F)c1 | -9% | 1.5
16 | O=C(NC(c1ccc(F)cc1F)[C@H]1C[C@H](O)C1)c1cscn1 (stereo partly drawn) | 2% | -0.21
17 | COc1ccc([C@@H](C)NS(=O)(=O)c2cccc(C(=O)N3CCC3)c2)cc1 | -5% | 0.75
18 | CC1CN(Cc2ccccc2)CCC1NC(=O)NC1CCCCC1O (stereo not drawn) | 0% | -0.02
19 | COCCn1cncc1CN1CCC(CNC(=O)c2scnc2C)CC1 | -9% | 1.94
20 | FC(F)(F)C[C@H]1CCCN(c2ncnc3[nH]ccc23)C1 | -6% | 0.82
21 | COCC(=O)Nc1cc(C(=O)N[C@H](C)c2ccc(OC)cc2)c2c(c1)ncn2CCc1ccccc1 | 22% | -2.78
22 | Cc1cccc(NC(=O)N2CCN(c3nccs3)CC2)c1C | -7% | 1.34
23 | Cc1noc(C2CC(F)CN2C(=O)c2ccc(Br)o2)n1 (stereo not drawn) | 1% | -0.12
24 | Clc1ccc(CCCn2cncn2)cc1 | -3% | 0.57
25 | CN(CCC#N)C(=O)N[C@H](c1ccc(F)c(Cl)c1)C(F)(F)F | -7% | 1.22
26 | CC(C)c1ccc(-c2cc(C(=O)Nc3sc4c(c3C#N)CC[C@H](C)C4)c3ccccc3n2)cc1 | 2% | -0.25
27 | CC(C)(C)OC(=O)N1CC2CC3CC2C1C3=O (stereo not drawn) | -10% | 1.06

Row | SMILES | % Inhibition | Z score
28 | CCOC[C@H](C)CS(=O)(=O)NCCc1cnoc1 | 1% | -0.14
29 | Cc1nc([C@H](C)N(C)C(=O)c2cn(Cc3ccc(Cl)cc3)nn2)c(C)s1 | -11% | 1.46
30 | CCN1CCN(C(=O)c2nc(N(CC)CC)c3c(C)cc(C)nc3n2)CC1 | -7% | 1.2
31 | O[C@H](CN1CCN(Cc2cncs2)CC1)c1cc2ccccc2o1 | -7% | 0.98
32 | CN(C(=O)N1CCCC[C@H](NC(=O)c2cnn(C)c2)C1)c1ccccc1 | -5% | 0.92
33 | Cc1cc(F)ccc1C(=O)NS(=O)(=O)N1CCCC1 | 2% | -0.29
34 | O=C(COc1ccc(F)cc1)N1CC2(C[C@H](N3CCOCC3)CO2)C1 | -22% | 3.48
35 | COc1ccc2c(c1)C(N1CCN(S(=O)(=O)c3ccccc3C)CC1)=Nc1ccccc1O2 | 8% | -1.12
36 | COC(=O)[C@@H]1CCCCN1Cc1c(C(=O)N2CCCN(C)CC2)nc2sccn12 | -8% | 0.9
37 | CCc1ccsc1C(=O)NCC(C)(C)C(N)=O | -12% | 1.09
38 | NC(=O)c1ccc(CN(C(=O)c2[nH]ccc2C2CC2)C2CC2)c(F)c1 | -8% | 1.33
39 | O=C(C1CCOCC1)N1CCN(c2cnccn2)C[C@@H](O)C1 | -15% | 1.69
40 | CC(NC(=O)c1n[nH]c2ccccc12)C1CCCO1 (stereo not drawn) | -2% | 0.39
41 | CC(C)(c1nc(Cc2cccnc2)no1)S(=O)(=O)C1CC1 | 19% | -2.36
42 | CCC(C(=O)N1CCC2(CC1)C(=O)N(CC(=O)NCC1CCCO1)CN2c1ccccc1)c1ccccc1 (stereo not drawn) | -25% | 2.63
43 | FC(F)(F)c1nc(-c2ccc3c(c2)OCCO3)n[nH]1 | 2% | -0.27
44 | Cn1cnc2cc(CNCc3ccc(C(=O)O)cc3)ccc21 | -11% | 1.6
45 | CC1COCCC1Nc1ccc2[nH]ncc2c1 (stereo not drawn) | 10% | -1.59
46 | Cn1nc(-c2cccs2)cc1CNC(=O)Cc1ccc(F)cc1 | -10% | 1.32
47 | O=C(CCc1ccccc1Br)N1CC(CN2C(=O)CCC2=O)C1 | -10% | 1.99
48 | Cn1cccc1CNC(=O)c1cc2ccc(Cl)cc2s1 | -13% | 1.88
49 | COc1ccc(NC(=O)Cn2nc3c(N4CCCCCC4)nccn3c2=O)c(OC)c1 | -5% | 0.45
50 | Cc1cc2[nH]c(=O)[nH]c2c(NC(=O)C[C@H]2C(=O)NCCN2C(C)C)c1C | -5% | 0.61
51 | Cc1ccc(-c2cc3n(n2)CCC(=O)N3CC(=O)N2CCCCC2)cc1 | -15% | 1.48
52 | Cc1ccc2c(c1)CCCN2C(=O)CNCCc1nc(-c2cccnc2)n[nH]1 | -3% | 0.32
53 | O=C(NCc1ccco1)c1nc(-c2ccncc2)cs1 | 28% | -4.11
54 | Cc1cnc(CN2C[C@]3(CCCN(C(=O)c4cccs4)C3)CCC2=O)cn1 | -9% | 1.5
